# From the supplement of paper PMC6135742
# Where a name gives a salt, the structure may show the parent alone. ± gives the standard deviation of the averaged measurements. The full ranking holds about 2,600 compounds; the median of “MBP+ mature oligodendrocyte number relative to DMSO vehicle control” is about -0.34, and the highest 2% start at about 13. Some of the results follow.
# Test system: jimpy (Plp1 jimpy) mouse iPSC-derived oligodendrocyte progenitor cells
# Assay: MBP+ mature oligodendrocyte number relative to DMSO vehicle control (SDs above negative control mean); higher = more surviving jimpy oligodendrocytes (rescue)
# Conditions: 10 µM; 3 days
# 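Note: 10 µM single dose with 3-day oligodendrocyte differentiation.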
row,Structure (SMILES),MBP+ mature oligodendrocyte number
1,COc1ccc(-c2ccc3ncc4c(c3c2)n(-c2ccc(N3CCNCC3)c(C(F)(F)F)c2)c(=O)n4C)cn1,< -6.01
2,C=CC(=O)Nc1cccc(Nc2nc(Nc3ccc(Oc4ccnc(C(=O)NC)c4)cc3)ncc2F)c1,-6.27
3,CCCSc1nc(N[C@@H]2C[C@H]2c2ccc(F)c(F)c2)c2nnn([C@@H]3C[C@H](OCCO)[C@@H](O)[C@H]3O)c2n1 [Ticagrelor],-0.438
4,C=C1C[C@@]2(O)O[C@@]3(C[C@H]2C(C)C)[C@@H](C)CC[C@@H]13 [Curcumol],5.04
5,O=C(O)COCCN1CCN(C(c2ccccc2)c2ccc(Cl)cc2)CC1 (stereo not drawn) [Cetirizine dihydrochloride],-0.0207
6,O=C(O)COCCN1CCN(C(c2ccccc2)c2ccc(Cl)cc2)CC1 (stereo not drawn) [Cetirizine DiHCl],-0.938
7,N[C@@H]1CONC1=O [D-Cycloserine],-0.119
8,Cn1cc(-c2cnn3c(N)c(Br)c([C@@H]4CCCNC4)nc23)cn1,< -6.01
9,OCC1OC(n2cnc3c(NC4CCCCC4)ncnc32)C(O)C1O (stereo not drawn) [N6-Cyclohexyladenosine],-1.17
10,N[C@@H](Cc1c[nH]c2ccc(O)cc12)C(=O)O [5-hydroxytryptophan (5-HTP)],-0.388
11,N[C@@H](Cc1c[nH]c2ccc(O)cc12)C(=O)O [5-Hydroxy-L-tryptophan],-1.75
12,CC(=O)Nc1nc2c(Oc3cc(-c4ccc(C(F)(F)F)cc4)ncn3)cccc2s1,4.88
13,CC(C)n1nc(-c2ccc3oc(N)nc3c2)c2c(N)ncnc21,< -6.01
14,N=C(N)Nc1ccc(C(=O)Oc2ccc3cc(C(=N)N)ccc3c2)cc1 [Nafamostat Mesylate],-3.03
15,COc1cc2nc(N(C)CCCNC(=O)C3CCCO3)nc(N)c2cc1OC (stereo not drawn) [Alfuzosin HCl],3.69
16,COc1cc2nc(N(C)CCCNC(=O)C3CCCO3)nc(N)c2cc1OC (stereo not drawn) [Alfuzosin hydrochloride],-0.394
17,Clc1ccc(Cn2c(CN3CCCC3)nc3ccccc32)cc1 [Clemizole hydrochloride],5.42
18,CCCCc1nc2cc(/C=C/C(=O)NO)ccc2n1CCN(CC)CC [Pracinostat (SB939)],< -5.15
19,O=C(O)/C=C/c1ccc(O)c(O)c1 [Caffeic Acid],1.07 ± 0.63
20,CC1(C)CC(=O)c2c(C(F)(F)F)nn(-c3ccc(C(N)=O)c(N[C@H]4CC[C@H](O)CC4)c3)c2C1,< -6.01
21,N#CSc1cc(SC#N)c(N)nc1N,-6.27
22,CC(=O)Oc1ccccc1C(=O)O [Acetylsalicylic acid],-0.865
23,CC(=O)Oc1ccccc1C(=O)O [Aspirin],3.36
24,"O=C(O)[C@H]1NCCC[C@H]1C(=O)O (racemic) [(±)-cis-Piperidine-2,3-dicarboxylic acid]",1
25,CNS(=O)(=O)CCc1ccc2[nH]cc(C3CCN(C)CC3)c2c1 [Naratriptan],3.94
26,CNS(=O)(=O)CCc1ccc2[nH]cc(C3CCN(C)CC3)c2c1 [Naratriptan hydrochloride],1.44
27,COc1ccc2ccc(=O)oc2c1CC=C(C)C [Osthole],0.0035

row,Structure (SMILES),MBP+ mature oligodendrocyte number
1,N=C(N)NS(=O)(=O)c1ccc(N)cc1 [Sulfaguanidine],4.63
2,C[C@]12CC[C@H](O)CC1=CC[C@@H]1[C@@H]2CC[C@]2(C)C(n3cnc4ccccc43)=CC[C@@H]12 [Galeterone],16.8
3,CC1=C(/C=C/C(C)=C/C=C/C(C)=C/C(=O)O)C(C)(C)CCC1 [Retinoic acid],1.11
4,CC1=C(/C=C/C(C)=C/C=C/C(C)=C/C(=O)O)C(C)(C)CCC1 [Tretinoin],1.87
5,"CC(O)C(O)[C@H]1CNc2nc(N)[nH]c(=O)c2N1 (stereo partly drawn) [(6R)-5,6,7,8-Tetrahydro-L-biopterin hydrochloride]",-1.5
6,NC(=O)C1=CN(C2OC(COP(=O)(O)OP(=O)(O)OC[C@H]3O[C@@H](n4cnc5c(N)ncnc54)C(OP(=O)(O)O)[C@H]3O)C(O)C2O)C=CC1 (stereo partly drawn) [NADPH tetrasodium],0.186
7,C#Cc1cccc(Nc2ncnc3cc4c(cc23)OCCOCCOCCO4)c1 [Icotinib],-3.15
8,Cc1ccc(NCCCc2ccccc2)c(N)c1,< -6.35
9,CCc1c(C)[nH]c2c1C(=O)C(CN1CCOCC1)CC2 (stereo not drawn) [Molindone hydrochloride],-0.206
10,c1ccc(-c2[nH]ncc2-c2ccnc3ccccc23)nc1,-2.12
11,CC1=C(C(=O)O)N2C(=O)[C@@H](NC(=O)[C@H](N)C3=CCC=CC3)[C@H]2SC1 [Cephradine],-1.26
12,CC1(C)[C@H](C(=O)O)N2C(=O)C[C@H]2S1(=O)=O [Sulbactam sodium],3.47
13,CC1(C)[C@H](C(=O)O)N2C(=O)C[C@H]2S1(=O)=O [Sulbactam],1.96
14,Cc1ncc(CO)c(CO)c1O [Pyridoxine HCl],1.85
15,CN1CCc2cc(Cl)c(O)cc2[C@@H](c2ccccc2)C1,1.39
16,Nc1ccc(N2C(=O)c3ccccc3C2=O)c(Cl)c1 [N-(4-Amino-2-chlorophenyl)phthalimide],0.0777
17,CCN(CC)CCOC(=O)c1ccc(N)cc1 [Procaine HCl],2.35
18,CCN(CC)CCOC(=O)c1ccc(N)cc1 [Procaine hydrochloride],1
19,Clc1ccc(C(Cn2ccnc2)OCc2ccc(Sc3ccccc3)cc2)c(Cl)c1 (stereo not drawn) [Fenticonazole Nitrate],7.99
20,CC[C@H](C)C(=O)O[C@H]1C[C@@H](C)C=C2C=C[C@H](C)[C@H](CC[C@@H]3C[C@@H](O)CC(=O)O3)[C@H]21 [Lovastatin],-4.43
21,NC1CCN(O)C1=O (racemic),-0.197
22,COc1cccc2cc(-c3nc([C@H]4CC[C@H](C(=O)O)CC4)n4ncnc(N)c34)[nH]c12,-5.93
23,O=C1CCC[C@@H]2[C@H]3CCC[N+]4([O-])CCC[C@@H](CN12)[C@@H]34 (stereo partly drawn) [Oxymatrine],-1.17
24,CC(=O)N[C@@H](CS)C(=O)O [Acetylcysteine],-0.107
25,CC(=O)N[C@@H](CS)C(=O)O [N-Acetyl-L-Cysteine],-0.0401
26,C[C@]1(c2nc3c(C(N)=O)cccc3[nH]2)CCCN1 [Veliparib (ABT-888)],1.85
